# The supplement of paper PMC8728848
# This is one part of the list.
# B1: PX14343H-pdi-506-26-506 (Parabacteroides distasonis) (protein)
# chain: QPTGTMTTDSKLTSKESALALTNSAYLKNTVFNKMTPGWGCNTILLLEYMTGKATSENSQSNYKDFQDLLVSDRSLYIEDWWQDCYAGIANCNLALQKLGEFENLDASLVNGYMAEVKFMRALYYFYLVRIFGDVPKITTVQSELGELQVSRAPVKEIYDEIIIPDLLEAEQSDLAFSDHTGRVSMGAVKALLADVYLTYAGYPLQGGKSYYAESAKRSLEVIKSNEYTLFTDYESLRLPSQNNKGEFIYQVQFSLNKRHNESVRIFLPSRSGISAYDLEYGSLIPTKEFVESFEKGDKRTEEKQYFFTNYKGHPSKFSPGAAELEFMDLNGYYIYKFFDQVAVDNTAKSDLNWSVYRYTDVLLMYAEAQVNADGTPNQQSIDIVNQIRGRAGLAPFKQTNASAFLEEVWDQRYFDLCYENKMWFDMLRTRKIRDDKSGEYVDFIGYKTNWGKVYTETQLLFPIPLSERQANPNLTQNQGY
# What was measured:
# Test in all cases: glycan array binding signal (z-score within array); higher = stronger binding
# Settings in all cases: glycan notation: IUPAC condensed, linker removed
# [1] = target: Fuc(a1-3)GlcNAc
# Method in brief: (§1)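 Columns mapping to the same glycan were averaged after glycan names were converted to IUPAC-condensed notation. The data come from 3228 arrays in the Consortium for Functional Glycomics database, limited to those with an available protein sequence. Binding is reported as a within-array Z-score averaged across arrays of one protein sequence and across linkers.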
# [2] = target: Fuc(a1-3)[Gal(b1-4)]Glc6S
# Method in brief: as §1
# [3] = target: Fuc(a1-3)[Gal(b1-4)]GlcNAc
# Method in brief: as §1
# [4] = target: Fuc(a1-3)[Gal(b1-4)]GlcNAc(b1-2)Man
# Method in brief: as §1
# [5] = target: Fuc(a1-3)[Gal(b1-4)]GlcNAc(b1-2)Man(a1-3)[Fuc(a1-3)[Gal(b1-4)]GlcNAc(b1-2)Man(a1-6)]Man(b1-4)GlcNAc(b1-4)GlcNAc
# Method in brief: as §1
# [6] = target: Fuc(a1-3)[Gal(b1-4)]GlcNAc(b1-2)Man(a1-3)[Fuc(a1-3)[Gal(b1-4)]GlcNAc(b1-2)Man(a1-6)]Man(b1-4)GlcNAc(b1-4)[Fuc(a1-6)]GlcNAc
# Method in brief: as §1
# [7] = target: Fuc(a1-3)[Gal(b1-4)]GlcNAc(b1-3)Gal(b1-3)[Fuc(a1-4)]GlcNAc
# Method in brief: as §1
# [8] = target: Fuc(a1-3)[Gal(b1-4)]GlcNAc(b1-3)Gal(b1-4)[Fuc(a1-3)]GlcNAc
# Method in brief: as §1
# [9] = target: Fuc(a1-3)[Gal(b1-4)]GlcNAc(b1-3)Gal(b1-4)[Fuc(a1-3)]GlcNAc(b1-3)Gal(b1-4)[Fuc(a1-3)]GlcNAc
# Method in brief: as §1
# [10] = target: Fuc(a1-3)[Gal(b1-4)]GlcNAc(b1-3)GalNAc
# Method in brief: as §1
# [11] = target: Fuc(a1-3)[Gal(b1-4)]GlcNAc(b1-6)GalNAc
# Method in brief: as §1
# [12] = target: Fuc(a1-3)[Gal(b1-4)]GlcNAc(b1-6)[Gal(b1-3)GlcNAc(b1-3)]Gal(b1-4)Glc
# Method in brief: as §1
# [13] = target: Fuc(a1-3)[Gal(b1-4)]GlcNAc6S
# Method in brief: as §1
# [14] = target: Fuc(a1-3)[Gal3S(b1-4)]Glc
# Method in brief: as §1
# [15] = target: Fuc(a1-3)[Gal3S(b1-4)]GlcNAc
# Method in brief: as §1
# [16] = target: Fuc(a1-3)[Gal3S(b1-4)]GlcNAc6S
# Method in brief: as §1
# [17] = target: Fuc(a1-3)[GalNAc(b1-4)]GlcNAc
# Method in brief: as §1
# [18] = target: Fuc(a1-3)[GalNAc(b1-4)]GlcNAc6S
# Method in brief: as §1
# [19] = target: Fuc(a1-4)GlcNAc
# Method in brief: as §1
# [20] = target: Fuc(b1-3)GlcNAc
# Method in brief: as §1
# [21] = target: Gal(a1-2)Gal
# Method in brief: as §1
# [22] = target: Gal(a1-3)Gal
# Method in brief: as §1
# [23] = target: Gal(a1-3)Gal(b1-3)GlcNAc
# Method in brief: as §1
# [24] = target: Gal(a1-3)Gal(b1-3)GlcNAc(b1-2)Man
# Method in brief: as §1
# [25] = target: Gal(a1-3)Gal(b1-3)GlcNAc(b1-2)Man(a1-3)[Gal(a1-3)Gal(b1-3)GlcNAc(b1-2)Man(a1-6)]Man(b1-4)GlcNAc(b1-4)GlcNAc
# Method in brief: as §1
# [26] = target: Gal(a1-3)Gal(b1-3)GlcNAc(b1-3)GalNAc
# Method in brief: as §1
# [27] = target: Gal(a1-3)Gal(b1-3)GlcNAc(b1-6)GalNAc
# Method in brief: as §1
# [28] = target: Gal(a1-3)Gal(b1-3)[Fuc(a1-4)]GlcNAc(b1-2)Man(a1-3)[Gal(a1-3)Gal(b1-3)[Fuc(a1-4)]GlcNAc(b1-2)Man(a1-6)]Man(b1-4)GlcNAc(b1-4)GlcNAc
# Method in brief: as §1
# [29] = target: Gal(a1-3)Gal(b1-4)Glc
# Method in brief: as §1
# [30] = target: Gal(a1-3)Gal(b1-4)GlcNAc
# Method in brief: as §1
# [31] = target: Gal(a1-3)Gal(b1-4)GlcNAc(b1-2)Man
# Method in brief: as §1
# [32] = target: Gal(a1-3)Gal(b1-4)GlcNAc(b1-2)Man(a1-3)[Gal(a1-3)Gal(b1-4)GlcNAc(b1-2)Man(a1-6)]Man(b1-4)GlcNAc(b1-4)GlcNAc
# Method in brief: as §1
# [33] = target: Gal(a1-3)Gal(b1-4)GlcNAc(b1-3)GalNAc
# Method in brief: as §1
# [34] = target: Gal(a1-3)Gal(b1-4)GlcNAc(b1-6)GalNAc
# Method in brief: as §1
# [35] = target: Gal(a1-3)Gal(b1-4)[Fuc(a1-3)]GlcNAc
# Method in brief: as §1
# [36] = target: Gal(a1-3)Gal(b1-4)[Fuc(a1-3)]GlcNAc(b1-2)Man(a1-3)[Gal(a1-3)Gal(b1-4)[Fuc(a1-3)]GlcNAc(b1-2)Man(a1-6)]Man(b1-4)GlcNAc(b1-4)GlcNAc
# Method in brief: as §1
# [37] = target: Gal(a1-3)GalNAc
# Method in brief: as §1
binder,measurement,setting,value
B1,glycan array binding signal (z-score),[1],-0.396
same,glycan array binding signal (z-score),[2],-0.364
same,glycan array binding signal (z-score),[3],-0.329
same,glycan array binding signal (z-score),[4],-0.424
same,glycan array binding signal (z-score),[5],2.09
same,glycan array binding signal (z-score),[6],2.77
same,glycan array binding signal (z-score),[7],-0.325
same,glycan array binding signal (z-score),[8],-0.254
same,glycan array binding signal (z-score),[9],-0.528
same,glycan array binding signal (z-score),[10],0.696
same,glycan array binding signal (z-score),[11],-0.188
same,glycan array binding signal (z-score),[12],0.353
same,glycan array binding signal (z-score),[13],0.1
same,glycan array binding signal (z-score),[14],-0.426
same,glycan array binding signal (z-score),[15],-0.382
same,glycan array binding signal (z-score),[16],-0.299
same,glycan array binding signal (z-score),[17],-0.381
same,glycan array binding signal (z-score),[18],-0.247
same,glycan array binding signal (z-score),[19],-0.438
same,glycan array binding signal (z-score),[20],-0.359
same,glycan array binding signal (z-score),[21],-0.25
same,glycan array binding signal (z-score),[22],1.63
same,glycan array binding signal (z-score),[23],-0.133
same,glycan array binding signal (z-score),[24],-0.187
same,glycan array binding signal (z-score),[25],3.96
same,glycan array binding signal (z-score),[26],-0.382
same,glycan array binding signal (z-score),[27],-0.284
same,glycan array binding signal (z-score),[28],1.39
same,glycan array binding signal (z-score),[29],0.159
same,glycan array binding signal (z-score),[30],-0.321
same,glycan array binding signal (z-score),[31],-0.378
same,glycan array binding signal (z-score),[32],6.89
same,glycan array binding signal (z-score),[33],0.163
same,glycan array binding signal (z-score),[34],-0.417
same,glycan array binding signal (z-score),[35],-0.014
same,glycan array binding signal (z-score),[36],0.009
same,glycan array binding signal (z-score),[37],-0.291
